The target in this experiment is site 2 of the sodium channel. The format is binding. The note with it: rat cortical synaptosomes, 10 nM [3H]-batrachotoxin, 90 min 25° C.; read-out: Ki, displacement of [3H]-batrachotoxin. (In a radioligand displacement assay an active substance lowers the binding of a labelled ligand.)

Experimental findings from patent US20030119903A1, “Use of trimebutine for treating pain” (priority 1999, published 2003) are described below.

For the compound `CCC(COC(=O)c1cc(OC)c(OC)c(OC)c1)(c1ccccc1)N(C)C.O=C(O)/C=C\C(=O)O` (racemic) [trimebutine, 2-dimethylamino-2-phenylbutyl 3,4,5-trimethoxybenzoate hydrogen maleate], the inhibition constant (Ki) – broadly, the equilibrium dissociation constant of an inhibitor or competing ligand from its target – came to 2.66 ± 0.15 µM.
`CC[C@@](COC(=O)c1cc(OC)c(OC)c(OC)c1)(NC)c1ccccc1` [(R)-Nor-TMB, (R) N-desmethyl trimebutine]: the Ki came to 1.26 ± 0.07 µM.
Turning to `CC[C@](COC(=O)c1cc(OC)c(OC)c(OC)c1)(c1ccccc1)N(C)C` [(R)-Trimebutine], the Ki is 2.89 ± 0.88 µM.
As for `CC[C@](COC(=O)c1cc(OC)c(OC)c(OC)c1)(NC)c1ccccc1` [(S)-Nor-TMB, (S)-N-desmethyl trimebutine], the figure is 0.8 ± 0.04 µM.
For `CC[C@@](COC(=O)c1cc(OC)c(OC)c(OC)c1)(c1ccccc1)N(C)C` [(S)-Trimebutine], the Ki was determined as 3.31 ± 0.36 µM.
Next, `CCCCN1CCCCC1C(=O)Nc1c(C)cccc1C` (stereo not drawn) [bupivacaine]: 7.14 ± 0.96 µM.
